# In ChEMBL document CHEMBL4888484, “Replenishing the malaria drug discovery pipeline: Screening and hit evaluation of the MMV Hit Generation Library 1 (HGL1) against asexual blood stage Plasmodium falciparum ,using a nano luciferase reporter read-out” (2022):
# About 420 (8.8%) of roughly 4,800 compounds showed an effect of 50% or more. Some of the results follow.
# System: Plasmodium falciparum
# Experiment: Confirmatory screen in NF54 nanoGlo assay, in single point, at 2uM, 72h
# Format: functional, Erythrocyte
# Details: timepoint 72 hour
row,Structure (SMILES),% Inhibition
1,CCN1c2cc(C(=O)NCc3ccccc3C)ccc2C(=O)N2CCCC[C@H]21,-3%
2,CC(C)[C@H](NC(=O)c1ccc(Cl)cc1Cl)C(=O)O,-7%
3,CCOc1ccc(NC(=O)c2cn3nc(-c4ccc(OCC)cc4)cc3nc2C2CCN(C(=O)OC(C)(C)C)CC2)cc1,42%
4,CCc1c2c(=O)n(-c3ccc(F)cc3)[nH]c2cc(=O)n1Cc1ccccc1,4%
5,CC(C)(C)CC(=O)Nc1ccc2c(c1)C(N1CCCCC1)=Nc1ccccc1O2,-13%
6,CCC(=O)N1CCC[C@H](OCc2ccccc2Cl)C1,-1%
7,CC(C)[C@H](Nc1ccc2nccnc2n1)c1nnc2n1CCC2,-8%
8,COc1cccc(NC(=O)c2ccc3c(c2)N(C)[C@@H]2CCCCCN2C3=O)c1,5%
9,COCc1nsc(N2CCC(c3c(F)cccc3F)CC2)n1,-5%
10,Cc1cc(NC(=O)CNC2C(C)CCN(C(=O)OC(C)(C)C)C2C)n(C(C)(C)C)n1 (stereo unspecified),-11%
11,C[C@@H](C(=O)Nc1nc(-c2ccccn2)cs1)n1nc2c(cc1=O)CCC2,17%
12,Cc1c(NC(=O)[C@H]2CCc3nnc(C4CCOCC4)n3CC2)cccc1C(F)(F)F,-13%
13,CC1=CN(O)[C@H](c2ccc(O)cc2)N=N1,-17%
14,C[C@H]1CCC[C@@H](NCCc2ccccc2)CCC/C=C/c2cc(O)cc(O)c2C(=O)O1,77%
15,Cc1cccc(C(=O)Oc2ccc(-n3ccnc3)cc2)c1,3%
16,O=c1cc2n(c(=O)[nH]1)CC(c1ccccc1)=NN2,4%
17,Cc1cn2c(S(=O)(=O)NCc3ccco3)c(C(C)C)nc2s1,-2%
18,Cc1nnc2sc(Nc3ccccc3)nn12,-2%
19,Cc1noc([C@@H](C)NC(=O)CC(C)C)c1C(=O)O,11%
20,NC(=O)[C@@H]1CN(C(=O)c2ccc(Br)cc2Oc2ccc(F)cc2)CCO1,0%
21,Cc1ccccc1C(=O)Nc1nnc(Cc2nc3ccccc3s2)s1,-10%
22,O=C1C2C3C=CC(C3=C3CCCCC3)C2C(=O)N1c1cccc(Cl)c1 (stereo unspecified),9%

row,Structure (SMILES),% Inhibition
1,CCc1nc(NC(=O)C(=O)Nc2cc(C)on2)sc1C,0%
2,O=C(N[C@H]1CCCc2occc21)c1ccco1,0%
3,CCN1CCC[C@@H]1CNCc1ccc2c(c1)OCCO2,2%
4,Cc1cc(CN(C)Cc2nccn2C)ccc1N1CCCCC1,-1%
5,O=C(NCc1ccc(F)cc1F)[C@H]1CCCN(c2cn[nH]c(=O)c2)C1,-11%
6,COc1ccc(OC)c([C@H](c2cc3c(cc2O)OCO3)N2CCCC2)c1,3%
7,CC[C@H]1CN2C=NC(N3CCN(C(=O)Cc4ccccc4)CC3)=CC2=N1,21%
8,Cc1csc(CNC(=O)C(=O)Nc2ccc3c(c2)C(=O)N(C)C3=O)n1,-1%
9,COc1cccc(OS(=O)(=O)Cc2ccon2)c1,1%
10,Cn1cnn(CC(=O)N2CCc3sccc3C2)c1=O,3%
11,CCOc1ccc(C(N)=O)cc1Br,-5%
12,Cc1ccc(CNC(=O)C[C@H]2CCS(=O)(=O)C2)cc1,-17%
13,Cn1ccc2cccc(NC(=O)N3CC(C)(CO)C3)c21,1%
14,O=c1[nH]c(=O)n(Cc2cc(Cl)cc3c2OCOC3)cc1Cl,0%
15,CC1CN(Cc2ccccc2)CC(C)C1NC(=O)c1ccncc1F (stereo unspecified),-4%
16,CC(C)(C)C(=O)N1CCC(O)(CS(=O)(=O)Cc2ccccc2)CC1,2%
17,c1ccc(-c2nc(C[n+]3ccc4c(c3)CCCC4)cs2)cc1,57%
18,NC(=NCc1cccc2cccnc12)N1CCN(c2nccs2)CC1,57%
19,COc1ccc2c(c1)[n+](CC(=O)c1ccc(-c3ccc(Br)cc3)cc1)c(CO)n2C,46%
20,CCOc1cc(CNCCN2CCOCC2)cc(Cl)c1OCc1ccccc1,-1%
21,O=C(Cn1cccc1-c1nc(-c2ccc(F)c(Br)c2)no1)N1CCc2ccccc2C1,1%
22,O=C([C@@H]1CNc2ccccc2O1)N1CCOCC1,-1%

row,Structure (SMILES),% Inhibition
1,C[C@@H]1CN(CCN(C)C(=O)Nc2nc(C3CC3)cs2)C[C@H](C)O1,8%
2,CC1CCC(N(C)C(=O)c2cc(S(=O)(=O)N3CCCCC3)ccc2N2CCCC2)CC1 (stereo unspecified),-22%
3,O=S(=O)(N[C@H](c1nccs1)C1CC1)c1c(F)cccc1Cl,0%
4,Cc1ccc(-c2cc(O)cc(CC[C@H]3CCCCN3)c2)c(C)n1,53%
5,Cc1ccc(S(=O)(=O)Cc2nc(-c3ccc(C(=O)Nc4ccc(C)cc4Cl)cc3)oc2C)cc1,5%
6,Cn1c(CNC(=O)NCc2cc(Cl)c(Cl)n2C)cc(Cl)c1Cl,5%
7,CCC(=O)NCCNC(=O)c1ccco1,6%
8,CCCN1CCN(S(=O)(=O)c2cccc3nonc23)CC1,3%
9,Cc1nsc(N2CCCC(C(C)NC(=O)OC(C)(C)C)C2)n1 (stereo unspecified),-7%
10,COc1nc(N2[C@@H]3CC[C@H]2C[C@@H](OC)C3)ncc1F,62%
11,CS(=O)(=O)CC1(CC(=O)N[C@H](c2ccccc2)C2CCC2)CC1,5%
12,Cc1nsc2ncc(C(=O)N3CCC(C)CC3)c(N3CCC(C(=O)Nc4cc(F)ccc4F)CC3)c12,60%
13,Cc1cncc(C=Cc2c(Cl)cccc2Cl)n1,-15%
14,CCC(CC)N1CC(C(=O)NC2COc3ccc(C)cc32)CC1=O (stereo unspecified),-10%
15,Cc1c(C(=O)N2CC[C@H](CC(C)(C)C)C2(C)C)nnn1-c1cnn(C)c1,-10%
16,CCN1CCN(c2nc3ncn(CC(=O)NCCc4ccc(Cl)cc4)c(=O)c3s2)CC1,25%
17,CC(C)c1ccc(-c2nc(CNc3cc4c(cc3Cl)NC(=O)CO4)cs2)cc1,-3%
18,Cc1cccc(NS(=O)(=O)c2ccc3nncn3c2)c1,-16%
19,Cc1nn(C)c(NC(=O)c2ccc(Cl)cc2)c1C1=CCCCC1,-10%
20,COc1ccc(NC(=O)[C@@H](c2cc(OC)c(OC)c(OC)c2)N(Cc2ccccc2)C(=O)Cn2nnc3ccccc32)cc1,-11%
21,CCOC(=O)C(F)(F)[C@@H](NCC(=O)OC)C1CC1,-15%
22,CN(C(=O)c1n[nH]c2c1CCC2)[C@H]1CCCc2c1cnn2C,-13%
